From PMC4336329 (PLoS ONE, 2015)
Out of some 310,000 compounds screened, about 14,000 (4.5%) showed an effect of 50% or more. The effect is printed as a negative number. This is one part of the list.

Target: human ether-à-go-go-related gene (hERG) potassium channel (human, UniProt Q12809)
Test: primary screen, population patch clamp on CHO cells stably expressing hERG
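Further: peak tail current of the secondary pulse compared with the same well before compound.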

Sequence of human ether-à-go-go-related gene (hERG) potassium channel (Q12809 whole entry, looked up): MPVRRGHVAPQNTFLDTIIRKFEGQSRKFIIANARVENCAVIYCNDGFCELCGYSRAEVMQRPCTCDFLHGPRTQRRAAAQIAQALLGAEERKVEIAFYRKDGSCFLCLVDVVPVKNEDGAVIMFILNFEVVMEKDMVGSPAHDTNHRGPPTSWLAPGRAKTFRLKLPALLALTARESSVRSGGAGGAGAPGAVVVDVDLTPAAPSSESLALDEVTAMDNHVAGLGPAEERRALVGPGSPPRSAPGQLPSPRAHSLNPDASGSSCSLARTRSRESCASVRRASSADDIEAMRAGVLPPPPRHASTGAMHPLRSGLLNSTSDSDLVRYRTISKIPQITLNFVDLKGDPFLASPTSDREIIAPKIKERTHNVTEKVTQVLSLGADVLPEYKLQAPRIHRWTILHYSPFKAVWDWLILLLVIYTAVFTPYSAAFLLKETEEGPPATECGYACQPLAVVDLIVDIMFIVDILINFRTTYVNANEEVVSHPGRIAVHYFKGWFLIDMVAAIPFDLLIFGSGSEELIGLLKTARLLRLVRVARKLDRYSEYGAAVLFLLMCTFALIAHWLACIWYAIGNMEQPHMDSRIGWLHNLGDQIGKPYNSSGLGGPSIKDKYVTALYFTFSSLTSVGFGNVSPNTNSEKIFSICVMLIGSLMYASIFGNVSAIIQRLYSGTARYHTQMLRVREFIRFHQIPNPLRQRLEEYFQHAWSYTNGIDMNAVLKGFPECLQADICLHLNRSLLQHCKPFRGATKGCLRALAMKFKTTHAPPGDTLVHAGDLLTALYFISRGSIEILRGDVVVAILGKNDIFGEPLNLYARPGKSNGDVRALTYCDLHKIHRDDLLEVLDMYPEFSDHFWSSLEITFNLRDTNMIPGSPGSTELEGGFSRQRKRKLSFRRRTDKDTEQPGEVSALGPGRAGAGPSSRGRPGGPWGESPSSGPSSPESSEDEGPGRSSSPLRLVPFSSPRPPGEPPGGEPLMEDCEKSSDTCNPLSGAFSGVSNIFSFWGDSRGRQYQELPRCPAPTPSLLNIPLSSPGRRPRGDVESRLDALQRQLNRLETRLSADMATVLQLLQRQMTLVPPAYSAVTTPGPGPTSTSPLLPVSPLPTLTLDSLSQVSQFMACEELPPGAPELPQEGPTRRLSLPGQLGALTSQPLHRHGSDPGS

Compound | hERG current change (%, negative = inhibition) at 10uM [%]
CCCSc1nc(=O)n2cc(C)ccc2n1 | -10.3
O=C(Nc1ccncc1)c1cc(F)cc(F)c1 | -8.15
O=C(NC(C(=O)NCCN1CCOCC1)C12CC3CC(CC(C3)C1)C2)C1CCCCC1 (stereo not drawn) | 3.03
Cc1cc(C(=O)NCc2ccco2)sc1C | 16.2
Cc1cc(O)c(CN2CCN(c3ccccc3)CC2)cc1C | 3.98
Cc1nc(NC(=O)CCc2ccccc2)ccc1Br | -5.7
CCOC(=O)c1c([N+](=O)[O-])c(C)[nH]c(=O)c1C#N | 21.1
COc1cc(SC)ccc1C(=O)N(CC(=O)Nc1ccccc1Br)Cc1ccco1 | -10.4
COc1cc(/C=C2\CCCc3c2nc2ccccc2c3C(=O)O)cc(Br)c1O | -4.39
CCOC(=O)C1CCN(Cc2nc3ccc([N+](=O)[O-])cc3c(=O)n2-c2ccc(OC)cc2OC)CC1 | -53.8
CCC(=O)N1C(=O)C2(Nc3ccccc3N2)c2ccccc21 | 7.41
CCn1c(C)cc(C)c(C#N)c1=O | 35.2
O=C(CSc1n[nH]c(-c2cccnc2)n1)Nc1ccc([N+](=O)[O-])cc1 | -24.6
Cc1cccc(CC(C)NC(=O)c2cc(COc3ccc(C)c(C)c3)on2)n1 (stereo not drawn) | -9.05
COc1ccc(OC)c(S(=O)(=O)CC(O)CS(=O)(=O)c2ccccc2)c1 (stereo not drawn) | 13.8
Cc1ccc2[nH]c(CN3CCN(C)C(CCO)C3)c(C)c2c1 (stereo not drawn) | -13.1
Cn1c(SCC(=O)N/N=C/c2cc([N+](=O)[O-])ccc2O)nnc1-c1ccccc1 | 10.5
O=C(Cn1ccc(C(F)(F)F)n1)N/N=C/c1cccs1 | 4.49
O=C(NCCc1ccc(Cl)cc1)c1cnc2n(c1=O)CCS2 | -20.3
O=C(Nc1ccccc1O)/C(=C\c1ccccc1)NC(=O)c1ccccc1 | -39.2
O=C(N/C(=C/c1ccc(Br)cc1)C(=O)N1CCCC1=O)c1ccco1 | -42.4
Cc1cc(=S)[nH]c(=S)[nH]1 | 6.98

Compound | hERG current change (%, negative = inhibition) at 10uM [%]
CN(CC(=O)Nc1ccccc1Cl)C(=O)COc1cccc2c1OC(C)(C)C2 | 1.77
Cc1cc(OCC(=O)NC2CC2)c2c(C)c(C)c(=O)oc2c1 | 15.5
C=CCN1C(=O)c2ccc(C(=O)N3CCN(S(=O)(=O)c4ccc(C(C)C)cc4)CC3)cc2C1=O | -5.78
Cc1ccc2nc(-c3ccncc3)cc(C(=O)Nc3ccncc3)c2c1 | -0.323
COCCN(C(=O)CCC(=O)Nc1ccccn1)C(C(=O)NC1CCCC1)c1ccc(OC)cc1 (stereo not drawn) | 2.56
CCc1cc(C(=O)NNC(=O)CCN2CCN(c3ccccc3)CC2)sc1C | 11.8
CC(=O)N1CCC(N(CCN2CCOCC2)C(=S)Nc2cc(C)cc(C)c2)CC1 | -2.98
CCN(CC)c1ccc([N+](=O)[O-])cc1/C=N/NC(=O)CC#N | -33.8
O=S(=O)(NCc1cccnc1)c1ccc2c(c1)OCCO2 | 0.45
CN(C)S(=O)(=O)N1CCC(Oc2cccc(C(=O)NCCCC3CCCC3)c2)CC1 | -7.54
Cc1ccc(-c2nnc3n2N=C(c2ccc(Br)cc2)CS3)cc1 | -1.26
CN(C)C1(CNC(=O)C2CCC(=O)N(CCc3ccc(Cl)cc3)C2)CCCCC1 (stereo not drawn) | -17.3
COc1cc(C(=O)Nc2nnc(SC)s2)c([N+](=O)[O-])cc1OC | 9.4
S=c1[nH]nc(-c2ccccc2)n1/N=C/c1cccc(Cl)c1 | 25.8
CCCCOc1nc2c(c(=O)n(C)c(=O)n2C)n1C | 5.4
O=C1C2(Cl)C3(Cl)C4(Cl)C(Cl)(Cl)C5(Cl)C3(Cl)C1(Cl)C5(Cl)C24Cl (stereo not drawn) | 18.4
Cc1cc(C)c(S(=O)(=O)N2CCCC2CNC(=O)c2ccc3c(c2)OCO3)c(C)c1 (stereo not drawn) | -33.7
O=C(O)/C=C/C(=O)Nc1cc(F)ccc1F | 22.1
O=C(Cc1ccccc1)NCC(=O)OCc1cccc([N+](=O)[O-])c1 | -6.77
CC[N+](C)(CC)CCC/C(=N/O)C(O)(c1ccccc1)c1ccccc1.[I-] | 15.5
CSc1ccc(S(=O)(=O)N2CCC(C(=O)NCc3ccco3)CC2)cc1 | -34.5
O=C(NC(=S)Nc1ccc2[nH]c(=O)[nH]c2c1)c1cc(Br)ccc1Cl | 23

Compound | hERG current change (%, negative = inhibition) at 10uM [%]
O=C(NC1=NCCS1)C1CCCCC1 | 24.5
COc1ccc(S(=O)(=O)Nc2cccc(Cl)c2)cc1OC | -2.18
O=C(NCC1CCCN(C(=O)CN2CCCCC2)C1)c1ccccc1Cl (stereo not drawn) | 13
CCc1nn(CC(=O)N2CCN(c3ccc(OC)cc3)CC2)c(=O)c2cc3occc3n12 | 3.03
COc1ccccc1NS(=O)(=O)c1cc(NC(=O)C2CCC2)ccc1N1CCCCC1 | 16.6
Cc1cc(NC(=O)Nc2cc(Cl)ccc2C)no1 | 7.39
O=C(C1=C[C@H](c2ccc(Br)cc2)C[C@H](OCc2ccc(CO)cc2)O1)N1CCN(Cc2ccc3c(c2)OCO3)CC1 | -19.8
CN(C)CCN(C(=O)c1cccc2ccccc12)c1nc2cc3c(cc2s1)OCO3.Cl | -22.3
CC(Oc1ccccc1F)c1nnc(SCC(=O)NCc2ccc3c(c2)OCO3)o1 (stereo not drawn) | -32.1
COc1ccc(NS(=O)(=O)c2ccc(O)c(NC(=O)c3ccc(S(=O)(=O)N4CCCC4)cc3)c2)cc1 | 2.69
c1ccc(CSc2snnc2-c2ccccc2)cc1 | -0.581
COc1ccc(CN2CCN(C(=O)CC(C)C)CC2)cc1Br | -4.54
Cc1nnc(SCC(=O)NCc2ccc(F)cc2)[nH]c1=O | 23
CC(C)N(C(=O)CSc1nc(COc2ccccc2)nc2ccccc12)C(C)C | -4.66
O=C(Cn1cc(C(=O)c2ccco2)c2ccccc21)Nc1ccccc1 | 7.45
Cc1nnc2ccc(-c3cccc(NS(=O)(=O)c4cc(F)ccc4F)c3)nn12 | -0.0273
CC(C)(C)C(=O)NC(NC(=S)Nc1sc2c(c1C#N)CCCC2)C(Cl)(Cl)Cl (stereo not drawn) | 21.9
N#C/C(=C/c1ccc(Sc2nc3ccccc3[nH]2)o1)c1cccc(Br)c1 | 21.3
O=C(NCc1ccc(F)cc1)N1CCN(C(=O)c2ccccc2)CC1 | -13.5
COc1nc(OC)nc(N2CCC(NC(=O)C(Cc3cccc(OC)c3OC)NC(C)=O)CC2)n1 (stereo not drawn) | -2.3
CC(OC(=O)C1CC(=O)N(Cc2ccco2)C1)C(=O)Nc1ccc(F)cc1Cl (stereo not drawn) | 11.1
O=C(NCC1CCCO1)c1ccccc1NS(=O)(=O)c1cccs1 (stereo not drawn) | -5.56

Compound | hERG current change (%, negative = inhibition) at 10uM [%]
S=C(NCc1ccc(Cl)cc1)NC12CC3CC(CC(C3)C1)C2 | 11.5
CC(C)CNC(=S)NNC(=O)c1csc2c1CCC(C)C2 (stereo not drawn) | -2.19
O=C(c1cccc(Br)c1)N1CCN(c2cnn(-c3ccccc3)c(=O)c2Cl)CC1 | -47.4
Cc1nn(-c2ccccc2)c2nc(Cl)c(C(=O)O)cc12 | -0.085
C=CCc1cccc([C@@H]2[C@@H](C)CC[C@H]3C(=O)N4[C@@H](c5cc(OC)c(OC)c(OC)c5)c5[nH]c6ccccc6c5C[C@H]4C(=O)N23)c1 | 19.9
O=C(O)c1c(Cl)c(Cl)c(Cl)c(Cl)c1C(=O)N1CCCC1 | 7.07
Cc1cc(C)nc(/N=C(/NC(=O)Nc2ccc(Cl)c(Cl)c2)Nc2cccc(Cl)c2)n1 | 6.58
Cc1ccc(-n2c(C)cc(C(=O)COC(=O)c3ccc[nH]c3=O)c2C)cc1 | -14.6
Cc1ccc(NC(=O)CN(C)S(=O)(=O)c2cccc3cccnc23)cc1C | -1.77
O=C(O)c1ccnc(SCC(=O)c2ccccc2)c1 | 13.3
CNc1oc(/C=C/c2cccc(OC)c2)nc1C#N | 13.9
COc1ccc(OC)c(/C=N/NC(=O)C(=O)N2CCCCCC2)c1 | 10.5
O=C(Cn1ncc2ccsc2c1=O)N1CCC2(CC1)OCCO2 | -9.23
COc1ccc(CCNC(=O)c2cccc(S(=O)(=O)N3CCCCCC3)c2)cc1 | -26.5
CC(/C=C/c1ccc(OCc2ccccc2)cc1)=N\O | -2.94
COc1cc(OC)c([C@H]2C=C(C)[C@H]3C[C@@H]2C3(C)C)c(OC)c1 | 24.3
O=C(Nc1ccccn1)C1COc2ccccc2O1 (stereo not drawn) | 16.1
O=C(Nc1ccccc1Cl)OC1CCCCC1 | 22.7
Br.CC(C)=NNc1nc(-c2ccc(N3C(=O)CCC3=O)cc2)cs1 | 15.3
CC1CCCN(Cc2csc(N)n2)C1 (stereo not drawn) | 5.03
CC1CN(C(=O)c2cccc(S(=O)(=O)N3CCN(c4ccccc4)CC3)c2)CC(C)O1 (stereo not drawn) | -29.9
